# In all, about 2,900 compounds were measured (“NF-kB SEAP reporter activity, fold change vs agonist alone”: median about 0.99, highest 2% from about 2.6 on). This is one part of the list.
# Columns and labels:
# RAW-Dual [1] = assay: NF-kB SEAP reporter activity, fold change vs agonist alone; higher = enhanced NF-kB activity; conditions: library stock concentration (final ~1000-fold dilution): 10 mM
# How it was run: (§1)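 RAW-Dual macrophages were seeded in DMEM at 50,000 cells/well in 384-well plates, given 50 nL of library stock by pin tool, and given a PRR agonist 1 h later. Plates were held at 37 °C, 5% CO2 for 20 hours, after which supernatant was read for IRF by QuantiLuc luminescence and for NF-κB by QuantiBlue absorbance at 620 nm. Reporter activity is expressed as fold change over wells that received agonist alone. A well was called cytotoxic when IncuCyte confluency fell below 70% of agonist controls in both mask sets.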
# RAW-Dual [2] = assay: NF-kB SEAP reporter activity, fold change vs agonist alone; cytotoxicity flag (confluency mask): cytotoxic (confluency <70% of control); higher = enhanced NF-kB activity
# How it was run: as §1
# RAW-Dual [3] = assay: NF-kB SEAP reporter activity, fold change vs agonist alone; cytotoxicity flag (confluency mask): not cytotoxic; higher = enhanced NF-kB activity
# How it was run: as §1
# [4] = cytotoxicity flag (confluency mask): cytotoxic (confluency <70% of control), agonist: Imiquimod (TLR7) […]
# [5] = cytotoxicity flag (confluency mask): cytotoxic (confluency <70% of control), agonist: MPLA (TLR4) […]
# [6] = agonist: ODN 1826 (TLR9) 0.5 ug/mL
# [7] = agonist: Pam2CSK4 (TLR2/6) 0.1 ug/mL
# [8] = agonist: Pam3CSK4 (TLR2/1) 0.1 ug/mL
# [9] = cytotoxicity flag (confluency mask): not cytotoxic, agonist: Imiquimod (TLR7) […]
# [10] = cytotoxicity flag (confluency mask): not cytotoxic, agonist: MPLA (TLR4) […]
smiles,measurement,setting,value
CC(NC(=O)/C(C#N)=C/c1cccc(Br)n1)c1ccccc1 (stereo not drawn),NF-kB SEAP reporter activity,RAW-Dual [1]; [4],0.268
same,NF-kB SEAP reporter activity,RAW-Dual [1]; [5],0.204
CC(NC(=O)/C(C#N)=C/c1cccc(Br)n1)c1ccccc1 (stereo not drawn) (library stock concentration (final ~1000-fold dilution): 10 mM),NF-kB SEAP reporter activity,RAW-Dual [2]; agonist: LPS (TLR4) 0.1 ug/mL,0.233
same,NF-kB SEAP reporter activity,RAW-Dual [2]; [6],0.186
same,NF-kB SEAP reporter activity,RAW-Dual [2]; [7],0.0992
same,NF-kB SEAP reporter activity,RAW-Dual [2]; [8],0.136
CCN(CC)CCNC(=O)c1cc(S(C)(=O)=O)ccc1OC.Cl,NF-kB SEAP reporter activity,RAW-Dual [1]; [9],0.937
same,NF-kB SEAP reporter activity,RAW-Dual [1]; [10],1.08
CCN(CC)CCNC(=O)c1cc(S(C)(=O)=O)ccc1OC.Cl (library stock concentration (final ~1000-fold dilution): 10 mM),NF-kB SEAP reporter activity,RAW-Dual [3]; agonist: LPS (TLR4) 0.1 ug/mL,1.26
same,NF-kB SEAP reporter activity,RAW-Dual [3]; [6],0.906
same,NF-kB SEAP reporter activity,RAW-Dual [3]; [7],1.08
same,NF-kB SEAP reporter activity,RAW-Dual [3]; [8],0.986
CC(C)CNc1ccnc(NCc2csc(-c3ccccc3)n2)n1.Cl,NF-kB SEAP reporter activity,RAW-Dual [1]; [4],1.85
same,NF-kB SEAP reporter activity,RAW-Dual [1]; [5],1.47
CC(C)CNc1ccnc(NCc2csc(-c3ccccc3)n2)n1.Cl (library stock concentration (final ~1000-fold dilution): 10 mM),NF-kB SEAP reporter activity,RAW-Dual [2]; agonist: LPS (TLR4) 0.1 ug/mL,1.62
same,NF-kB SEAP reporter activity,RAW-Dual [2]; [6],0.221
same,NF-kB SEAP reporter activity,RAW-Dual [2]; [7],0.625
same,NF-kB SEAP reporter activity,RAW-Dual [2]; [8],0.446
Cl.Clc1ccc(CCCOCCCN2CCCCC2)cc1,NF-kB SEAP reporter activity,RAW-Dual [1]; [9],0.898
same,NF-kB SEAP reporter activity,RAW-Dual [1]; [10],1.07
Cl.Clc1ccc(CCCOCCCN2CCCCC2)cc1 (library stock concentration (final ~1000-fold dilution): 10 mM),NF-kB SEAP reporter activity,RAW-Dual [3]; agonist: LPS (TLR4) 0.1 ug/mL,0.95
same,NF-kB SEAP reporter activity,RAW-Dual [3]; [6],0.796
same,NF-kB SEAP reporter activity,RAW-Dual [3]; [7],1.01
same,NF-kB SEAP reporter activity,RAW-Dual [3]; [8],0.795
COc1ccc(-c2cc(=O)c3c(O)cc(O)cc3o2)cc1O (library stock concentration (final ~1000-fold dilution): 10 mM),NF-kB SEAP reporter activity,RAW-Dual [3]; agonist: LPS (TLR4) 0.1 ug/mL,1.59
same,NF-kB SEAP reporter activity,RAW-Dual [3]; [6],1.32
same,NF-kB SEAP reporter activity,RAW-Dual [3]; [7],1.23
same,NF-kB SEAP reporter activity,RAW-Dual [3]; [8],1.2
COc1ccc(-c2cc(=O)c3c(O)cc(O)cc3o2)cc1O,NF-kB SEAP reporter activity,RAW-Dual [1]; [9],2.16
same,NF-kB SEAP reporter activity,RAW-Dual [1]; [10],1.32
CCN(CC)CC#CCOC(=O)C(O)(c1ccccc1)C1CCCCC1 (stereo not drawn) (library stock concentration (final ~1000-fold dilution): 10 mM),NF-kB SEAP reporter activity,RAW-Dual [3]; agonist: LPS (TLR4) 0.1 ug/mL,1.59
same,NF-kB SEAP reporter activity,RAW-Dual [3]; [6],1.11
same,NF-kB SEAP reporter activity,RAW-Dual [3]; [7],0.998
same,NF-kB SEAP reporter activity,RAW-Dual [3]; [8],1.28
CCN(CC)CC#CCOC(=O)C(O)(c1ccccc1)C1CCCCC1 (stereo not drawn),NF-kB SEAP reporter activity,RAW-Dual [1]; [9],1.71
same,NF-kB SEAP reporter activity,RAW-Dual [1]; [10],1.37
O=C(Cc1cccc(OC(F)(F)F)c1)Nc1ccc(CCCCc2nnc(NC(=O)Cc3ccccn3)s2)nn1,NF-kB SEAP reporter activity,RAW-Dual [1]; [9],0.884
same,NF-kB SEAP reporter activity,RAW-Dual [1]; [10],1.29
O=C(Cc1cccc(OC(F)(F)F)c1)Nc1ccc(CCCCc2nnc(NC(=O)Cc3ccccn3)s2)nn1 (library stock concentration (final ~1000-fold dilution): 10 mM),NF-kB SEAP reporter activity,RAW-Dual [3]; agonist: LPS (TLR4) 0.1 ug/mL,1.33
same,NF-kB SEAP reporter activity,RAW-Dual [3]; [6],0.805
same,NF-kB SEAP reporter activity,RAW-Dual [3]; [7],0.518
same,NF-kB SEAP reporter activity,RAW-Dual [3]; [8],0.624
CC(C)Nc1cccnc1N1CCN(C(=O)c2cc3cc(NS(C)(=O)=O)ccc3[nH]2)CC1.CS(=O)(=O)O (library stock concentration (final ~1000-fold dilution): 10 mM),NF-kB SEAP reporter activity,RAW-Dual [3]; agonist: LPS (TLR4) 0.1 ug/mL,1.31
same,NF-kB SEAP reporter activity,RAW-Dual [3]; [6],1.09
same,NF-kB SEAP reporter activity,RAW-Dual [3]; [7],0.93
same,NF-kB SEAP reporter activity,RAW-Dual [3]; [8],0.697
CC(C)Nc1cccnc1N1CCN(C(=O)c2cc3cc(NS(C)(=O)=O)ccc3[nH]2)CC1.CS(=O)(=O)O,NF-kB SEAP reporter activity,RAW-Dual [1]; [9],1.13
same,NF-kB SEAP reporter activity,RAW-Dual [1]; [10],1.06
CN(c1ncccc1CNc1nc(Nc2ccc3c(c2)CC(=O)N3)ncc1C(F)(F)F)S(C)(=O)=O.Cl (library stock concentration (final ~1000-fold dilution): 10 mM),NF-kB SEAP reporter activity,RAW-Dual [2]; agonist: LPS (TLR4) 0.1 ug/mL,0.194
same,NF-kB SEAP reporter activity,RAW-Dual [2]; [6],0.29
same,NF-kB SEAP reporter activity,RAW-Dual [2]; [7],0.0618
same,NF-kB SEAP reporter activity,RAW-Dual [2]; [8],0.135
CN(c1ncccc1CNc1nc(Nc2ccc3c(c2)CC(=O)N3)ncc1C(F)(F)F)S(C)(=O)=O.Cl,NF-kB SEAP reporter activity,RAW-Dual [1]; [4],0.169
same,NF-kB SEAP reporter activity,RAW-Dual [1]; [5],0.247
CCN(Cc1ccncc1)C(=O)C(CO)c1ccccc1 (stereo not drawn),NF-kB SEAP reporter activity,RAW-Dual [1]; [9],0.911
same,NF-kB SEAP reporter activity,RAW-Dual [1]; [10],1.04
CCN(Cc1ccncc1)C(=O)C(CO)c1ccccc1 (stereo not drawn) (library stock concentration (final ~1000-fold dilution): 10 mM),NF-kB SEAP reporter activity,RAW-Dual [3]; agonist: LPS (TLR4) 0.1 ug/mL,1.04
same,NF-kB SEAP reporter activity,RAW-Dual [3]; [6],1.07
same,NF-kB SEAP reporter activity,RAW-Dual [3]; [7],1.21
same,NF-kB SEAP reporter activity,RAW-Dual [3]; [8],0.931
c1ccc2c(-c3nccs3)c[nH]c2c1 (library stock concentration (final ~1000-fold dilution): 10 mM),NF-kB SEAP reporter activity,RAW-Dual [3]; agonist: LPS (TLR4) 0.1 ug/mL,1.08
same,NF-kB SEAP reporter activity,RAW-Dual [3]; [6],0.892
same,NF-kB SEAP reporter activity,RAW-Dual [3]; [7],0.899
same,NF-kB SEAP reporter activity,RAW-Dual [3]; [8],0.934
c1ccc2c(-c3nccs3)c[nH]c2c1,NF-kB SEAP reporter activity,RAW-Dual [1]; [9],0.853
same,NF-kB SEAP reporter activity,RAW-Dual [1]; [10],0.948
CNCCC(Oc1cccc2ccccc12)c1cccs1.Cl (stereo not drawn),NF-kB SEAP reporter activity,RAW-Dual [1]; [4],1.77
same,NF-kB SEAP reporter activity,RAW-Dual [1]; [5],1.7
CNCCC(Oc1cccc2ccccc12)c1cccs1.Cl (stereo not drawn) (library stock concentration (final ~1000-fold dilution): 10 mM),NF-kB SEAP reporter activity,RAW-Dual [2]; agonist: LPS (TLR4) 0.1 ug/mL,1.62
same,NF-kB SEAP reporter activity,RAW-Dual [2]; [6],0.325
same,NF-kB SEAP reporter activity,RAW-Dual [2]; [7],0.507
same,NF-kB SEAP reporter activity,RAW-Dual [2]; [8],0.555
CC(C)=CCC[C@](C)(O[C@@H]1O[C@H](CO)[C@@H](O)C(O)[C@H]1O)[C@H]1CC[C@]2(C)[C@H]1[C@H](O)CC1[C@@]3(C)CC[C@H](O)C(C)(C)[C@@H]3[C@@H](O[C@@H]3O[C@H](CO)[C@@H](O)[C@H](O)[C@H]3O[C@@H]3O[C@@H](C)[C@H](O)[C@@H](O)[C@H]3O)C[C@]12C (stereo partly drawn) (library stock concentration (final ~1000-fold dilution): 10 mM),NF-kB SEAP reporter activity,RAW-Dual [3]; agonist: LPS (TLR4) 0.1 ug/mL,1.14
same,NF-kB SEAP reporter activity,RAW-Dual [3]; [6],1.19
same,NF-kB SEAP reporter activity,RAW-Dual [3]; [7],1.18
same,NF-kB SEAP reporter activity,RAW-Dual [3]; [8],0.983
CC(C)=CCC[C@](C)(O[C@@H]1O[C@H](CO)[C@@H](O)C(O)[C@H]1O)[C@H]1CC[C@]2(C)[C@H]1[C@H](O)CC1[C@@]3(C)CC[C@H](O)C(C)(C)[C@@H]3[C@@H](O[C@@H]3O[C@H](CO)[C@@H](O)[C@H](O)[C@H]3O[C@@H]3O[C@@H](C)[C@H](O)[C@@H](O)[C@H]3O)C[C@]12C (stereo partly drawn),NF-kB SEAP reporter activity,RAW-Dual [1]; [9],0.925
same,NF-kB SEAP reporter activity,RAW-Dual [1]; [10],1.04
